# Measurements as given in PubChem BioAssay AID1745845 (National Center for Advancing Translational Sciences (NCATS), 2022).
# Several values for one entry are separate records, joined by “and”; a condition that tells them apart may be missing. Equal entries are not always repeated. In all, about 360,000 compounds went through this assay and about 2,600 (0.72%) were called active. This list was built around the results that the source calls inconclusive (neither active nor inactive); the mix of calls is not that of the screen. Calls follow the shape of the dose curve; as a rule, active = well fitted inhibition curve with a large enough effect; inconclusive = small, poorly fitted or top-dose-only effect; inactive = no such curve, though single readings can be large or run the other way. Where the call is inconclusive, the potency comes from a doubtful curve fit.
# Assay: Primary qHTS for Inhibitors of ATXN expression; also: nearly all actives have a fitted effect of over 55% in size
# Settings: HEK-293 ATXN2-luciferase reporter, luminescence, 24 h; activity change, negative = inhibition: at 57 µM (top of the series)
# In short: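 qHTS (up to 57 uM final) was run with 24 h compound exposure of reporter cells at 37 °C. Each well was multiplexed: SteadyGlo luminescence measured ATXN2-luciferase expression after a fluorogenic Gly-Phe-AFC viability readout (25 uM final).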
# % is scaled to controls: 0 for no effect and ±100 for the full control effect; potency is read from the fitted curve at half-maximal effect; tags tell the direction and shape of the fitted curve.
SMILES,Potency,"activity change, negative = inhibition"
O=C(COC(=O)c1nc(Cl)ccc1Cl)Nc1ccc(Cl)cn1,inactive,–
CC(C)C[C@H](NC(=O)c1nc[nH]c1C(=O)N1CCNCC1)C(=O)OC(C)(C)C,inactive,–
Cc1ccccc1NC(=S)NCCC(c1ccccc1)c1ccccc1,"inconclusive: 39.8 µM [inhibitor, single point]",–
COc1ccc(Nc2nnc(-c3ccc(C)c(S(=O)(=O)N4CCN(C)CC4)c3)c3ccccc23)cc1,"inconclusive: 39.8 µM [inhibitor, partial curve, poor fit]",–
O=C1N(Cc2cccc(Cl)c2)C[C@@H]2C[C@@H](c3cccn3-c3nccs3)N3CCC[C@@]123,"inconclusive: 3.98 µM [inhibitor, partial curve, poor fit]",–
Cc1ccc(C2CC(=O)Nc3c2ccc2ccccc32)cc1[N+](=O)[O-] (stereo unspecified),"inconclusive: 23.8 µM [inhibitor, single point]",–
O=[N+]([O-])c1ccc(N/N=C/c2c[nH]c3ccccc23)cc1,inactive,–
COc1ccc(C(=O)Nn2c(SCC(=O)NC3CCCC3)nc3ccccc3c2=O)cc1,"inconclusive: 39.8 µM [inhibitor, single point]",–
Cc1cc(C)cc(NC(=O)CCC(=O)Nc2nnc(C(C)C)s2)c1,"inconclusive: 5.62 µM [inhibitor, partial curve]",–
COC(=O)C1=C(C)NC(C)=C(C(=O)O[C@@H]2CCCN(Cc3ccccc3)C2)[C@@H]1c1cccc([N+](=O)[O-])c1,"inconclusive: 35.5 µM [inhibitor, partial curve] and inconclusive: 25.1 µM [inhibitor, partial curve]",–
CCCCCNC(=O)N1CCC(CN(Cc2ccc(Cl)cc2)Cc2ccc([N+](=O)[O-])s2)C1 (stereo unspecified),active: 27.3 µM,–
COc1ccc(C(=O)/C=C/C(=O)N(CC(=O)NC2CCCCC2)Cc2ccccc2OC)c(O)c1,active: 21.2 µM,–
COc1ccc(C(C#N)=C2C=CC(=NO)C=C2)cc1,inactive,–
O=C(c1cc(C(=O)NCCc2ccccc2)c(=O)n(CCc2ccccc2)c1)c1cc(Cl)ccc1O,inactive,–
COc1cc2c(C(=O)N3CCN(c4ccc(C)cc4)C(C)C3)cn(CC(C)C)c(=O)c2cc1OC (stereo unspecified),"inconclusive: 39.8 µM [inhibitor, single point]",–
C[n+]1c2cc(N)ccc2cc2ccc(N)cc21,active: 2.24 µM and active: 3.16 µM,–
Cn1c(=O)n(Cc2ccccc2)c(=O)c2c1nc1n2CCCN1CCc1ccccc1,inactive,–
Cc1cc(C)nc(SCC(=O)Nc2ncc(Cc3cccc(Cl)c3)s2)n1,inactive,–
CCN(CC)S(=O)(=O)c1cc(NC(=O)Cn2ncc(Cl)c(Cl)c2=O)ccc1C,"inconclusive: 35.5 µM [inhibitor, single point]",–
COc1ccccc1CNC(=O)Cn1c(-c2cccs2)cc2cc(F)ccc21,inactive,–
CCCNC(=O)CCCN1C(=O)c2ccccc2Sc2ncccc21,inactive,–
CCN(CC)CCNC(=O)c1ccc(NC(=O)Cc2cccc3ccccc23)cc1,"inconclusive: 31.6 µM [inhibitor, single point]",–

SMILES,Potency,"activity change, negative = inhibition"
Cc1nc2n(n1)C(c1ccccc1)C1=C(CC(c3ccco3)CC1=O)N2 (stereo unspecified),"inconclusive: 35.5 µM [inhibitor, single point]",–
Cc1ccc(NC(=O)c2cccc3cccnc23)cc1,inactive,–
Cc1ccc(-c2cc(=O)c3cc(F)ccc3[nH]2)cc1,inactive,–
COc1cc(C(C[N+](=O)[O-])c2c(N)n(C)c(=O)n(C)c2=O)ccc1O (stereo unspecified),"inconclusive: 37.7 µM [inhibitor, single point]",–
CN(C)CCCNCCCNC(=O)/C(=N\O)c1ccccn1,inactive,–
Nc1nc2ccccc2cc1C(=O)NCc1ccc(Cl)cc1Cl,"inconclusive: 12.6 µM [inhibitor, partial curve]",–
O=C(CSc1cccc[n+]1[O-])c1cc2ccccc2o1,inactive,–
N#CCC(=O)Nc1ccc(C(=O)OC(C(=O)Nc2cc(C(F)(F)F)ccc2Cl)c2ccccc2)cc1 (stereo unspecified),"inconclusive: 35.5 µM [inhibitor, single point]",–
Cn1c(C(=O)N2CCCC(C(=O)NCCCSC3CCCCC3)C2)cc2sccc21 (stereo unspecified),inactive,–
O=S(=O)(c1ccc(Cl)c(NC(=S)N/N=C/c2ccc(O)cc2)c1)N1CCOCC1,"inconclusive: 25.1 µM [inhibitor, single point]",–
O=C(Nc1ccccc1)c1cn2ccccc2n1,active: 11.2 µM,–
O=C1[C@H](Cc2ccccc2)NCC=CC[C@H](c2ccc(Cl)cc2)N1Cc1ccc(Cl)cc1,"inconclusive: 22.4 µM [inhibitor, single point]",–
C=CCC[C@H](Cc1ccc(F)cc1)C(=O)OC[C@H](Cc1c[nH]c2ccccc12)NC(=O)[C@@H](CC=C)CC(=O)NCCO,"inconclusive: 39.8 µM [inhibitor, single point]",–
CC(C)C[C@H](NC(=O)c1[nH]cnc1C(=O)Nc1ccccc1F)C(=O)OC(C)(C)C,"inconclusive: 39.8 µM [inhibitor, single point]",–
O=C(N/N=C/c1cccnc1)c1ccc2c(c1)OCCO2,inactive,–
O=C1c2ccccc2C(=O)C1c1nccc2ccccc12,"inconclusive: 14.1 µM [inhibitor, single point]",–
CN1CCC[C@@H]1Cc1c[nH]c2ccc(CCS(=O)(=O)c3ccccc3)cc12,inactive,–
Cc1c(N=C2N=C(NC(=O)Nc3ccc(Cl)cc3)c3ccccc32)c(=O)n(-c2ccccc2)n1C,"inconclusive: 6.7 µM [inhibitor, partial curve]",–
CCN(CC)S(=O)(=O)c1ccc(NC(=O)COC(=O)c2ccc(NC(=O)CC#N)cc2)cc1,"inconclusive: 0.597 µM [inhibitor, full curve, poor fit]",–
O=S(=O)(Nc1ccc(-c2ccc3nncn3n2)cc1)c1ccccc1Cl,inactive,–
Cc1nn(C)c2c1c(-c1ccccc1)cc(=O)n2C(C)C(=O)NCCc1ccc(Cl)cc1 (stereo unspecified),"inconclusive: 39.8 µM [inhibitor, single point]",–
CC(C)(C)NCCC(O)c1cc(C(F)(F)F)nc2c(C(F)(F)F)cccc12 (stereo unspecified),inactive,–

SMILES,Potency,"activity change, negative = inhibition"
CNc1nc(-c2ccccn2)nnc1-c1ccccc1,"inconclusive: 39.8 µM [inhibitor, single point]",–
O=C(c1ccc(S(=O)(=O)N2CCOCC2)cc1)N1CCN(c2ccc(F)cc2)CC1,inactive,–
CCCc1cc(=O)[nH]c(SCC(=O)NCCCC(=O)OCC)n1,inactive,–
Cc1ccc(S(=O)(=O)Nc2ccc3c(c2)C(=O)N([C@H](C)CO)C[C@@H](C)[C@@H](CN(C)C(=O)Nc2cccc4ccccc24)O3)cc1,"inconclusive: 22.4 µM [inhibitor, partial curve, poor fit]",–
Cc1nc2cc(-c3ccccc3)nn2c(C)c1CCC(=O)NCCc1ccccc1,"inconclusive: 28.2 µM [inhibitor, partial curve]",–
c1ccc(C2(CN3CCNC[C@H]3Cc3cccc4ccccc34)CC2)cc1,"inconclusive: 39.8 µM [inhibitor, single point]",–
COc1cc(OC)c(CN2CCc3c([nH]c4ccccc34)C2)cc1Br,"inconclusive: 22.4 µM [inhibitor, partial curve, poor fit]",–
Cc1ccc(C(=O)C2CCN(CC(=O)N3CCN(c4ccc(F)cc4)CC3)CC2)cc1,"inconclusive: 12.6 µM [inhibitor, partial curve, poor fit]",–
CS[C@H]1SC[C@@H]2C(=O)N(C)[C@H](C(C)C)C(=O)OC[C@H](NC(=O)c3cnc4ccccc4n3)C(=O)N[C@H](C)C(=O)N(C)[C@@H]1C(=O)N(C)[C@H](C(C)C)C(=O)OC[C@H](NC(=O)c1cnc3ccccc3n1)C(=O)N[C@H](C)C(=O)N2C,active: 0.0109 µM,–
Cc1cc(N/N=C/c2ccc(O)cc2O)nc(-n2nc(C)cc2C)n1,"inconclusive: 25.1 µM [inhibitor, partial curve]",–
C(=C\c1nc2ccccc2[nH]1)/c1ccccc1,"inconclusive: 17.8 µM [inhibitor, single point]",–
CNC(=O)c1c(NC(=O)c2ccco2)sc2c1CCCC2,inactive,–
CC(=C\c1ccccc1)/C=C1/SC(=S)N(CCCC(=O)O)C1=O,"inconclusive: 33.6 µM [inhibitor, partial curve, poor fit]",–
Cc1ccc[n+](C(C)C(=O)c2ccc(-c3ccccc3)cc2)c1 (stereo unspecified),"inconclusive: 11.2 µM [inhibitor, partial curve]",–
COc1c(C)cc(Br)cc1C(=O)Nc1ccccc1C,–,inconclusive: -39.5% [inhibitor]
COc1ccc(NC(=O)C2CC(=O)N(Cc3ccc(C)cc3)C2)cc1S(=O)(=O)N1CCCCC1 (stereo unspecified),inactive,–
Cc1cccc(Nc2c3c(nc4ccccc24)CCC3)c1,"inconclusive: 14.1 µM [inhibitor, partial curve, poor fit]",–
COc1ccc(Nc2nc(N)c([N+](=O)[O-])c(NC3CCCCC3)n2)cc1,"inconclusive: 28.2 µM [inhibitor, single point]",–
COc1ccc(CN2C[C@@H](CO)O[C@@H](n3cnc4c(N5CCN(c6ccccc6)CC5)ncnc43)C2)cc1,"inconclusive: 31.6 µM [inhibitor, partial curve, poor fit]",–
Cc1ccc(/C=C2\SC(=S)N(CCCC(=O)Nc3ccccc3C(=O)O)C2=O)cc1,active: 12.6 µM,–
CCCCCCCN1C(Nc2ccccc2)=NC[C@@H]1Cc1ccccc1,"inconclusive: 28.2 µM [inhibitor, partial curve, poor fit]",–
CC(C)C[C@@]12C(=O)N(c3cccc(Br)c3)C(=O)N1[C@H](c1ccc(F)cc1)[C@@H]1C(=O)N(C3CCCCC3)C(=O)[C@@H]12,inactive,–
